Reference: PubChem BioAssay AID623894 (Johns Hopkins Ion Channel Center, 2012)
The source holds more than one record for some entries. This list holds those alone. The source may hold further records. The values listed for one entry repeat one measurement in other runs, samples, wells, individuals or studies. Brackets tell where a record comes from. Letters hold for one entry only.

Biological target: Potassium channel subfamily K member 3 (Rattus norvegicus) (UniProt O54912)
Test: KCNK3 potassium channel inhibitors, SAR follow-up, selectivity assay for KCNK9 inhibitor project, cell-based, FluxOR thallium flux, CRC set 3 (AID 623894)
Conditions: KCNK3-expressing cell line, FluxOR thallium flux fluorescence
Summary of the method: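 Assay system: tetracycline-induced KCNK3 CHO cells / Times: dye loading 90 min, compound exposure 20 min, room temperature, dark / Signal: kinetic thallium-flux fluorescence with FluxOR dye, 110 s post-stimulus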

UniProt O54912, sequence (O54912 whole entry, looked up): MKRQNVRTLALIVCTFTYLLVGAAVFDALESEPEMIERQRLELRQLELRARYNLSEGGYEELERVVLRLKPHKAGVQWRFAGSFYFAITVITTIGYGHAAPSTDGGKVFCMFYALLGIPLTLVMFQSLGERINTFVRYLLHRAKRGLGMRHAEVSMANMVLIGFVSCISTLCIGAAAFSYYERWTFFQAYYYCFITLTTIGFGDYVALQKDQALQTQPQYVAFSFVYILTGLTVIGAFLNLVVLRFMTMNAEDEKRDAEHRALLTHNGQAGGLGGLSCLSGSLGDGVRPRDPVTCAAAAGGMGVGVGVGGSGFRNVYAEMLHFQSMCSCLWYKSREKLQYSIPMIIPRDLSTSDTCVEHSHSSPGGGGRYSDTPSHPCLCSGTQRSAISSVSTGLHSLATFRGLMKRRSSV

Compound | IC50
C[C@H]([C@@H]1CC2CC[C@H]1C2)n1c(-c2ccsc2)n[nH]c1=S | 470 nM [sample A] and 5.09 µM [sample B]
C[C@@H]([C@@H]1CC2CC[C@H]1C2)n1c(-c2ccsc2)n[nH]c1=S | 1.61 µM [sample A] and 20.4 µM [sample B]
